Measured values: PubChem BioAssay AID485313 (National Center for Advancing Translational Sciences (NCATS), 2010)
The campaign covered roughly 320,000 compounds. About 7,600 (2.4%) were called active. Inconclusive results, whose numbers are uncertain, are shown with a selection of clear calls. The call rests on the fitted dose curve; in most records, active means well fitted activation curve with a large enough effect; inconclusive means small, poorly fitted or top-dose-only effect; inactive means no such curve, though single readings can be large or run the other way. Potencies of inconclusive entries are left out as doubtful fits.

assay: qHTS Assay for NPC1 Promoter Activators; settings: Huh7 NPC1 promoter luciferase reporter, 24 h; series mostly up to 9.22 µM; further: nearly all actives have a fitted effect of over 60% in size;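 on activation: reporter is driven by a mutant NPC1 promoter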
Summary of the method: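 Huh7 cells stably carrying NPC1 promoter–luciferase, plated in Opti-MEM with 10% FBS for 2 h, were exposed to compound in DMSO for 24 h at 37 °C; luciferase reagent was added for 10 min and luminescence read.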
Potency means the concentration at half of the fitted maximal effect; tags describe the fitted curve by direction and shape.

**Q.** Which Potency does the source give for `Cc1ccc2nsnc2c1NC(=O)c1cccnc1Cl` here?
**A.** inactive

**Q.** With `C#CCOC(=O)c1ccccc1C(=O)OCC#C` as the molecule, how does the Potency read?
**A.** inconclusive [activator, single point]

**Q.** For `O=C(Nc1nc2ccccc2[nH]1)c1ccc(Cl)c(S(=O)(=O)N2CCCC2)c1`, which Potency is on record?
**A.** inconclusive [activator, single point]

**Q.** With `CS(=O)(=O)N1CCc2cc(C(=O)Nc3ccccc3Br)ccc21` as the molecule, how does the Potency read?
**A.** inconclusive [activator, single point]

**Q.** Which Potency does the source give for `c1ccc(CSc2nnc3ccc(-c4cccs4)nn23)nc1` here?
**A.** inactive

**Q.** Which Potency does the source give for `Cc1ccccc1NC(=S)N/N=C/c1ccc(O)cc1O` here?
**A.** inconclusive [activator, single point]

**Q.** With `CSc1cccc(NC(=O)Nc2ccc(Cl)cc2)c1` as the molecule, how does the Potency read?
**A.** inactive

**Q.** Which Potency does the source give for `CCOC(=O)C1C(=O)C=C(c2ccc(C)cc2)CC1c1ccco1` (centres undefined) here?
**A.** inactive

**Q.** Which Potency does the source give for `O=C(O)c1ccc(/C=N/Nc2cccc(C(F)(F)F)c2)cc1` here?
**A.** active: 2.82 µM

**Q.** With `COCCCN(C(=O)C1CCC1)c1c(N)n(Cc2ccccc2)c(=O)[nH]c1=O` as the molecule, how does the Potency read?
**A.** inactive

**Q.** With `Cc1ccc2c(C)c(C(=O)Nc3ccc(S(=O)(=O)Nc4onc(C)c4C)cc3)oc2c1` as the molecule, how does the Potency read?
**A.** inactive

**Q.** For `Nc1cc([N+](=O)[O-])cc2oc(-c3ccccc3)cc12`, which Potency is on record?
**A.** inconclusive [activator, single point]

**Q.** For `c1ccc2c(c1)CCN(c1nc(CN3CCOCC3)nc3sc4c(c13)CCCC4)C2`, which Potency is on record?
**A.** inactive

**Q.** For `O=C(Oc1ccc([N+](=O)[O-])cc1)c1cc(-c2ccccc2)nc2ccccc12`, which Potency is on record?
**A.** inactive

**Q.** Which Potency does the source give for `C/C(=N\NC(=O)c1ccc2ccccc2c1)c1cccnc1` here?
**A.** inconclusive [activator, partial curve]

**Q.** With `CCCCOC(=O)c1ccc(N=Nc2c(C)c(C#N)c(O)[nH]c2=O)cc1` as the molecule, how does the Potency read?
**A.** inactive

**Q.** Which Potency does the source give for `COc1ccc(-c2cc3nc(C)cc(N)n3n2)cc1` here?
**A.** active: 0.112 µM

**Q.** For `COc1ccc(S(=O)(=O)N2CCC(C(=O)NCCc3c[nH]c4ccccc34)CC2)cc1`, which Potency is on record?
**A.** inactive

**Q.** For `Cc1ccc(C(=O)C(C)OC(=O)Cn2c(C)csc2=O)cc1` (centres undefined), which Potency is on record?
**A.** inactive

**Q.** With `C=CCOc1c(OC)cc(/C=N/Nc2cccc(C(=O)O)c2)c(Br)c1Br` as the molecule, how does the Potency read?
**A.** active: 2.51 µM

**Q.** Which Potency does the source give for `Cc1cccc(N=Nc2c(C)[nH]n(C(N)=S)c2=O)c1C` here?
**A.** inconclusive [activator, partial curve]

**Q.** Which Potency does the source give for `CCOC(=O)C1CCN(C(=O)/C=C/c2cccs2)CC1` here?
**A.** inconclusive [activator, partial curve]

**Q.** With `CC1CCN(C(=O)c2cc3c(=O)n4ccccc4nc3s2)CC1` as the molecule, how does the Potency read?
**A.** inconclusive [activator, single point]

**Q.** With `Nc1ccc2nn(-c3ccc(F)cc3)nc2c1` as the molecule, how does the Potency read?
**A.** active: 0.891 µM

**Q.** For `Cn1cccc1C(=O)C(=O)Nc1ccc(Cl)cc1`, which Potency is on record?
**A.** active: 0.794 µM

**Q.** With `Cc1ccc(-c2nc(C#N)c(NCC3CCCO3)o2)cc1` (centres undefined) as the molecule, how does the Potency read?
**A.** inconclusive [activator, single point]

**Q.** For `O=C(c1ccc2oc(CCc3ccccc3)nc2c1)N1CC[C@H](O)C1`, which Potency is on record?
**A.** active: 3.55 µM

**Q.** Which Potency does the source give for `O=C(Nc1ccc(N2CCCCC2)c(Cl)c1)c1cccnc1` here?
**A.** active: 2.82 µM

**Q.** For `CN(C)c1ccc(CNc2ccccn2)cc1`, which Potency is on record?
**A.** inconclusive [activator, single point]

**Q.** Which Potency does the source give for `O=C(Nc1ccc(SC(F)(F)F)cc1)c1ccccn1` here?
**A.** inconclusive [activator, partial curve, poor fit]

**Q.** With `O=C(Nc1ncc(Cc2cccc(Cl)c2Cl)s1)C1CCCO1` (centres undefined) as the molecule, how does the Potency read?
**A.** inconclusive [activator, partial curve]

**Q.** With `Oc1ccc(NCc2ccccc2OCc2ccccc2F)cc1` as the molecule, how does the Potency read?
**A.** inactive

**Q.** With `Cc1ccc2nc(-c3sc4nc(C)ccc4c3N)[nH]c2c1` as the molecule, how does the Potency read?
**A.** active: 3.16 µM

**Q.** Which Potency does the source give for `CSCc1nc2sc(C(=O)Nc3nc(C)cs3)c(C)c2c(=O)[nH]1` here?
**A.** inconclusive [activator, partial curve]

**Q.** With `COc1ccccc1OCCNC(=O)c1ccc2c(c1)CCC2` as the molecule, how does the Potency read?
**A.** inconclusive [activator, single point]

**Q.** With `NC(=O)c1c(NC(=O)c2cnccn2)sc2c1CCCC2` as the molecule, how does the Potency read?
**A.** inconclusive [activator, partial curve]

**Q.** With `CC1Nc2ccccc2C(=O)N1NS(=O)(=O)c1ccccc1` (centres undefined) as the molecule, how does the Potency read?
**A.** inactive

**Q.** Which Potency does the source give for `Cc1ccc2nc(N3C(=O)CNC3=S)sc2c1` here?
**A.** active: 1.12 µM

**Q.** With `Nc1nc(-c2nc3ccccc3[nH]2)cs1` as the molecule, how does the Potency read?
**A.** active: 1.26 µM

**Q.** With `CN(CC(=O)Nc1ccc(Cl)cc1)C(=O)CNC(=O)c1ccc2ccccc2c1` as the molecule, how does the Potency read?
**A.** inconclusive [activator, partial curve]

**Q.** Which Potency does the source give for `CNc1nc2c(-c3ccc(Cl)cc3)nnn2c2ccccc12` here?
**A.** inactive

**Q.** Which Potency does the source give for `CCCOc1ccc(OCCSc2nnc(N)s2)cc1` here?
**A.** inconclusive [activator, partial curve]

**Q.** For `Cc1ccc(OCc2cc(C(=O)N(C)CCc3ccccc3)no2)cc1C`, which Potency is on record?
**A.** active: 2.82 µM

**Q.** For `O=C(Nc1cccc(-c2cn3ccsc3n2)c1)c1ccccc1`, which Potency is on record?
**A.** inactive

**Q.** With `Cc1ccc2cc(C#N)c(N3CCCC3)nc2c1C` as the molecule, how does the Potency read?
**A.** inconclusive [activator, partial curve]

**Q.** Which Potency does the source give for `O=C1c2ccccc2C(=O)N1CCC1=CCCCC1` here?
**A.** inactive

**Q.** For `Cc1ccccc1Nc1nc(-c2ccccc2)c(C(=O)Nc2cccnc2)s1`, which Potency is on record?
**A.** inactive

**Q.** With `CC1Oc2ccccc2N(CC(=O)NCc2ccccc2)C1=O` (centres undefined) as the molecule, how does the Potency read?
**A.** inconclusive [activator, partial curve]

**Q.** With `Cc1cc2ccccc2n1CCNC(=O)c1ccccc1` as the molecule, how does the Potency read?
**A.** inconclusive [activator, partial curve]

**Q.** Which Potency does the source give for `COc1ccc(S(=O)(=O)N2CCCC(C(=O)NCC3CCCO3)C2)cc1OC` (centres undefined) here?
**A.** inactive

**Q.** With `C/C(=N\NC(=O)c1ccccc1NC(=O)c1ccc(Cl)cc1)c1ccncc1` as the molecule, how does the Potency read?
**A.** inconclusive [activator, full curve]

**Q.** Which Potency does the source give for `COc1ccc(C2(c3ccc(OC)cc3)NC(=O)N(CC(=O)N(C)C)C2=O)cc1` here?
**A.** inactive

**Q.** With `COc1ccc(Cl)cc1C(=O)Nc1ccc(Br)c(C)n1` as the molecule, how does the Potency read?
**A.** inconclusive [activator, single point]

**Q.** With `Cc1ccc(-c2cc(-c3cccc(F)c3)n[nH]2)c(O)c1` as the molecule, how does the Potency read?
**A.** inconclusive [activator, partial curve]

**Q.** For `O=C(c1cc2cc(Br)ccc2o1)N1CCCC1`, which Potency is on record?
**A.** inconclusive [activator, partial curve]

**Q.** For `O=C(N/N=C/c1c[nH]c2ccccc12)c1ccc2c(c1)OCCO2`, which Potency is on record?
**A.** inconclusive [activator, full curve]

**Q.** With `CCN(CC(=O)Nc1c(F)cccc1F)C(=O)CCNC(=O)c1ccco1` as the molecule, how does the Potency read?
**A.** inactive

**Q.** With `C=CCc1cccc2cc(C(=O)Nc3ccc(F)cc3)c(=O)oc12` as the molecule, how does the Potency read?
**A.** inconclusive [activator, partial curve]

**Q.** With `O=C1/C(=C\Nc2ccc(Cl)cc2)CCN1c1ncccn1` as the molecule, how does the Potency read?
**A.** active: 2 µM

**Q.** For `COCCn1c(C)cc(C(=O)CSc2nnc3ccccn23)c1C`, which Potency is on record?
**A.** inconclusive [activator, partial curve, poor fit]

**Q.** Which Potency does the source give for `CN(Cc1ccccc1)C(=O)CCC1CCN(C(=O)CCC(F)(F)F)CC1` here?
**A.** inconclusive [activator, partial curve]

**Q.** With `COCC1CCCCN1C(=O)c1ccc2oc(CCc3ccccc3)nc2c1` (centres undefined) as the molecule, how does the Potency read?
**A.** inconclusive [activator, partial curve]

**Q.** Which Potency does the source give for `O=C1CSC(c2ccccc2)N1c1nnc(C23CC4CC(CC(C4)C2)C3)s1` (centres undefined) here?
**A.** inactive

**Q.** Which Potency does the source give for `COc1ccc(OCc2cc(C(=O)N3C[C@@H](C)O[C@@H](C)C3)no2)c(Cl)c1` here?
**A.** inconclusive [activator, single point]

**Q.** With `Nc1cc(Cl)nc(N/N=C/c2ccccc2[N+](=O)[O-])n1` as the molecule, how does the Potency read?
**A.** inconclusive [activator, single point]

**Q.** Which Potency does the source give for `O=[N+]([O-])c1ccccc1NC(=S)N/N=C/c1ccc(O)c(O)c1` here?
**A.** inconclusive [activator, partial curve]

**Q.** With `COc1ccc(C(=O)c2ccc(CC#N)s2)cc1` as the molecule, how does the Potency read?
**A.** inconclusive [activator, single point]

**Q.** With `Cc1ccc(SCC(=O)NC2CCCCCC2)cc1` as the molecule, how does the Potency read?
**A.** inconclusive [activator, partial curve]

**Q.** With `O=C(O/N=C1/CCSc2ccccc21)c1ccccc1` as the molecule, how does the Potency read?
**A.** inactive

**Q.** For `COc1cc(NC(=S)NC(=O)c2ccccc2C)ccc1NC(=O)c1cccs1`, which Potency is on record?
**A.** inactive

**Q.** For `O=C(/C=C/c1cccc(Oc2ccccc2)c1)N1CCOCC1`, which Potency is on record?
**A.** inconclusive [activator, single point]

**Q.** Which Potency does the source give for `O=C(Nc1nnc(SCc2ccc(F)cc2)s1)c1ccc2ncsc2c1` here?
**A.** inconclusive [activator, partial curve]

**Q.** Which Potency does the source give for `CC(C)Oc1ccc(C(=O)NC(=S)Nc2ccc(Cl)c(C(=O)O)c2)cc1` here?
**A.** inconclusive [activator, partial curve]

**Q.** With `Cc1ccccc1C(=O)NCCc1nnc(SCC(=O)Nc2nc(-c3ccccc3)cs2)n1C` as the molecule, how does the Potency read?
**A.** inactive

**Q.** For `O=C(CSc1nnc(NCc2ccccc2)s1)c1ccco1`, which Potency is on record?
**A.** inactive

**Q.** For `COc1ccc(/C=N/Nc2ccccn2)c(OC)c1OC`, which Potency is on record?
**A.** inconclusive [activator, partial curve]

**Q.** Which Potency does the source give for `Fc1ccc(CSc2ccc(-c3cccs3)nn2)cc1` here?
**A.** inconclusive [activator, partial curve]

**Q.** With `CC(C)c1ccc(NC(=O)CN2C(=O)c3ccccc3S2(=O)=O)cc1` as the molecule, how does the Potency read?
**A.** inconclusive [activator, partial curve]

**Q.** Which Potency does the source give for `COC(=O)N1CCc2c(sc(NC(=O)C3COc4ccccc4O3)c2C(N)=O)C1` (centres undefined) here?
**A.** inconclusive [activator, single point]
